One assay deals with T1, GST-Ap-NF-kB RHD (UniProt A0A913YAJ5).
T1 sequence: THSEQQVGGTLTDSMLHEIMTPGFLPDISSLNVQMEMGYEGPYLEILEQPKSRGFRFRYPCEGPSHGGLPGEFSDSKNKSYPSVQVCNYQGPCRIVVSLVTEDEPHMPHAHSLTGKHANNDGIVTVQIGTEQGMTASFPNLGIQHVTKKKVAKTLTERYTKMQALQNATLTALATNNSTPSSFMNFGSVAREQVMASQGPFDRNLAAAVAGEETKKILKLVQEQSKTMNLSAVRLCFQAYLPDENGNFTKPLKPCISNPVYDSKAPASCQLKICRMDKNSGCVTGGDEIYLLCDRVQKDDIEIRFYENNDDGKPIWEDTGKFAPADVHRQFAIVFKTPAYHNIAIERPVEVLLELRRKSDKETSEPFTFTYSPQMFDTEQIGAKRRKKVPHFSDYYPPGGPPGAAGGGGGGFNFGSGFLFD
The assay is described as follows: protein-binding microarray (PBM). The following applies: PBM: ~300 nM protein, 6 mM HEPES pH 7.8, 80 mM KCl, 0.5 mM EDTA, 0.5 mM EGTA, 6% glycerol, 35 ng/ul poly-dIdC, 1% milk, 1 h, room temperature; high values mean tight binding; double strand, one strand shown.

The target in another assay is T2, GST-Co-NF-kB (UniProt F1ARL5).
T2 sequence: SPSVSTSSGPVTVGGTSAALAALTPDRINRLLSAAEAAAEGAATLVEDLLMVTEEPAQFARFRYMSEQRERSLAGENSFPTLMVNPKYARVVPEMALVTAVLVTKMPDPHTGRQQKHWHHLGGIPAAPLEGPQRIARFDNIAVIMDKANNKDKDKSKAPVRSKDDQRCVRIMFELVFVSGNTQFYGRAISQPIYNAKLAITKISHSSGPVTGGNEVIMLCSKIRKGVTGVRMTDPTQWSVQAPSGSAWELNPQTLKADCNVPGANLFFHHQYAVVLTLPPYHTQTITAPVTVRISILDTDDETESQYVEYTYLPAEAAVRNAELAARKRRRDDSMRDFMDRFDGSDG
The assay is described as follows: protein-binding microarray (PBM). The settings on record: PBM: ~300 nM protein, 6 mM HEPES pH 7.8, 80 mM KCl, 0.5 mM EDTA, 0.5 mM EGTA, 6% glycerol, 35 ng/ul poly-dIdC, 1% milk, 1 h, room temperature; Ap Aiptasia and Nv Nematostella (sea anemones) / Co Capsaspora / Aq Amphimedon (sponge) / Dm Drosophila / Hu human; RHD is the Rel homology domain; high values mean tight binding; most listed sequences are background and not binding sites; double strand, one strand shown.

The list shows a part of the results, in another mix than the full data. The list includes weakly bound sequences.

With “CCGATTAACATCAGGAAGTTACCTGATGTTAATCGGGTCTTGATTCGCTTGACGCTGCTG”, the binding signal worked out at 0.577 z-score in the assay with GST-Ap-NF-kB RHD and 0.376 z-score in the assay with GST-Co-NF-kB.

In the case of “CCGATTAACATCAGGGGGGACTATGATGTTAATCGGGTCTTGATTCGCTTGACGCTGCTG”, the figures for the binding signal with GST-Ap-NF-kB RHD and with GST-Co-NF-kB were 5.46 z-score and 5.47 z-score, respectively.

As for “CCGATTAACATCACGGGAGTCCCTGATGTTAATCGGGTCTTGATTCGCTTGACGCTGCTG”, the figures for the binding signal with GST-Ap-NF-kB RHD and with GST-Co-NF-kB were 5.38 z-score and 1.57 z-score, respectively.

Turning to “CCGATTAACATCAAATTTCCCCCTGATGTTAATCGGGTCTTGATTCGCTTGACGCTGCTG”, the binding signal in the assay with GST-Ap-NF-kB RHD turned out to be 9.03 z-score; with GST-Co-NF-kB it was 12.3 z-score.

With “CCGATTAACATCAAGGTATTTCCTGATGTTAATCGGGTCTTGATTCGCTTGACGCTGCTG”, the figures for the binding signal in the assay with GST-Ap-NF-kB RHD and with GST-Co-NF-kB were 0.974 z-score and 0.36 z-score, respectively.

Consider “CCGATTAACATCAATTGGGAAATTGATGTTAATCGGGTCTTGATTCGCTTGACGCTGCTG”, for which the binding signal in the assay with GST-Ap-NF-kB RHD came out at 0.737 z-score; with GST-Co-NF-kB it was 1.8 z-score.

With “CCGATTAACATCAGGGGATTGGATGATGTTAATCGGGTCTTGATTCGCTTGACGCTGCTG”, the binding signal is 4.77 z-score with GST-Ap-NF-kB RHD and 2.06 z-score with GST-Co-NF-kB.

On to “CCGATTAACATCAAGGACTTCCCTGATGTTAATCGGGTCTTGATTCGCTTGACGCTGCTG”, for which the binding signal with GST-Ap-NF-kB RHD was 2.9 z-score; with GST-Co-NF-kB it was 0.935 z-score.

On to “CCGATTAACATCATTCCCGGGAATGATGTTAATCGGGTCTTGATTCGCTTGACGCTGCTG”, for which the results for the binding signal with GST-Ap-NF-kB RHD and with GST-Co-NF-kB were 2.49 z-score and 5.77 z-score, respectively.

For “CCGATTAACATCAGATATTCCCCTGATGTTAATCGGGTCTTGATTCGCTTGACGCTGCTG”, the binding signal with GST-Ap-NF-kB RHD turned out to be 7.71 z-score; in the assay with GST-Co-NF-kB it was 8.17 z-score.

For the sequence “CCGATTAACATCAGGGGTGGGAATGATGTTAATCGGGTCTTGATTCGCTTGACGCTGCTG”, the binding signal with GST-Ap-NF-kB RHD worked out at 2.31 z-score; with GST-Co-NF-kB it was 3.75 z-score.

Consider “CCGATTAACATCAAAATCACCCCTGATGTTAATCGGGTCTTGATTCGCTTGACGCTGCTG”, for which the binding signal with GST-Ap-NF-kB RHD turned out to be 4.66 z-score; with GST-Co-NF-kB it was 5.02 z-score.

With “CCGATTAACATCAGGAAAACACCTGATGTTAATCGGGTCTTGATTCGCTTGACGCTGCTG”, the binding signal was 2.56 z-score with GST-Ap-NF-kB RHD and -0.232 z-score with GST-Co-NF-kB.

Regarding “CCGATTAACATCAAATAAGTCCCTGATGTTAATCGGGTCTTGATTCGCTTGACGCTGCTG”, the binding signal was determined as 4.69 z-score in the assay with GST-Ap-NF-kB RHD and 1.42 z-score in the assay with GST-Co-NF-kB.

With “CCGATTAACATCACATTCTCCCCTGATGTTAATCGGGTCTTGATTCGCTTGACGCTGCTG”, the results for the binding signal with GST-Ap-NF-kB RHD and in the assay with GST-Co-NF-kB were 4.7 z-score and 6.71 z-score, respectively.

“CCGATTAACATCAGGGAACTACATGATGTTAATCGGGTCTTGATTCGCTTGACGCTGCTG”: the binding signal with GST-Ap-NF-kB RHD is 1.52 z-score; with GST-Co-NF-kB it was 1.62 z-score.

Regarding “CCGATTAACATCACAAATCCCCCTGATGTTAATCGGGTCTTGATTCGCTTGACGCTGCTG”, the binding signal in the assay with GST-Ap-NF-kB RHD came out at 8.39 z-score; with GST-Co-NF-kB, 6.1 z-score.

In the case of “CCGATTAACATCACGGGAAAACCTGATGTTAATCGGGTCTTGATTCGCTTGACGCTGCTG”, the binding signal with GST-Ap-NF-kB RHD was found to be 4.2 z-score; with GST-Co-NF-kB, 5.1 z-score.

On to “CCGATTAACATCACCATTTCCCCTGATGTTAATCGGGTCTTGATTCGCTTGACGCTGCTG”, for which the binding signal with GST-Ap-NF-kB RHD was 5.75 z-score; with GST-Co-NF-kB it was 6.17 z-score.

Consider “CCGATTAACATCAGGGAGCTACCTGATGTTAATCGGGTCTTGATTCGCTTGACGCTGCTG”, for which the binding signal came out at 2.89 z-score with GST-Ap-NF-kB RHD and 0.628 z-score with GST-Co-NF-kB.

Consider “CCGATTAACATCAGGAAATCACCTGATGTTAATCGGGTCTTGATTCGCTTGACGCTGCTG”, for which the binding signal in the assay with GST-Ap-NF-kB RHD is 2.81 z-score; in the assay with GST-Co-NF-kB it was -0.0313 z-score.

The values are drawn from publication PMC5700166.
